In all, about 420,000 compounds went through this assay and about 64,000 (15%) were called active. Inconclusive results, whose numbers are uncertain, are shown with a selection of clear calls. Calls come from the whole dose curve; as a rule, active = well fitted inhibition curve with a large enough effect; inconclusive = small, poorly fitted or top-dose-only effect; inactive = flat fitted curve, though single readings scatter. No potency is given beside an inconclusive call; the fits are too rough.
assay: qHTS for Inhibitors of human tyrosyl-DNA phosphodiesterase 1 (TDP1): qHTS in cells in absence of CPT; conditions: DT40 Tdp1-/- hTDP1 cells, no CPT, ATP luminescence, 48 h; activity change, negative = growth inhibition: at 46.2 µM (top of the series); note: nearly all actives have a fitted effect of over 55% in size
In short: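 Cells were dispensed at 400 per well, compounds added by pin tool, plates incubated ≥48 hr at 37 °C, then CellTiter-Glo added for 30 min at room temperature before luminescence reading. Line: DT40 Tdp1-/- complemented with hTDP1; camptothecin omitted.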
% is set by controls: 0 for no effect and ±100 for the full control effect; potency is the fitted concentration of half-maximal effect; tags give direction and shape of the fitted curve.

| Compound | Potency | activity change, negative = growth inhibition |
| --- | --- | --- |
| Cc1cc2ccc3ccccc3c2cc1CN(C)C | inconclusive [inhibitor, single point] | – |
| CC1(C(=O)Nc2ccc3c(c2)OCCO3)CCN1Cc1ccccc1OC(F)F (stereo not given) | inconclusive [inhibitor, single point] | – |
| COc1ccccc1C(=O)COC(=O)c1c(-c2ccccc2)noc1C | inconclusive [inhibitor, single point] | – |
| CCC(C(=O)NCCc1ccc(Cl)cc1)n1nc(C)c2c(C)n(-c3ccccc3)nc2c1=O (stereo not given) | inconclusive [inhibitor, partial curve] | – |
| Cc1nc2nc(SCC(=O)NC(C)c3ccccc3)nn2c(C)c1Cc1c(F)cccc1Cl (stereo not given) | active: 16.4 µM | – |
| O=C(CSc1nc2ccccc2o1)N1c2ccccc2Sc2ccccc21 | inconclusive [inhibitor, single point] | – |
| Cc1ccc(CC2(c3ccccc3)NC(=O)NC2=O)cc1 (stereo not given) | inconclusive [inhibitor, partial curve, poor fit] | – |
| CC1(C)C2CC[C@]3(C)C(CC=C4[C@@H]5C[C@@](C)(CO)[C@@H](O)C[C@]56C[C@@H](OC6=O)[C@]43C)[C@@]2(C)CC[C@@H]1O (stereo not given in full) | inactive | – |
| CCN(C[C@H]1N[C@@](Cc2ccccc2)(C(=O)OC)[C@H]2C(=O)N(C)C(=O)[C@@H]12)S(=O)(=O)c1ccc(C(F)(F)F)cc1 | active: 18.4 µM | – |
| Cc1ccc(C(=O)N/C(=C/c2ccc(N(C)C)cc2)C(=O)NCC2CCCO2)cc1 (stereo not given) | inactive | – |
| Cc1cc(=O)[nH]c(N/N=C/c2c[nH]c3ccccc23)n1 | inconclusive [inhibitor, single point] | – |
| CC(C)(C)c1ccc(C(=O)NCC(=O)N/N=C/c2cccnc2)cc1 | inactive | – |
| Cc1cc(C)c2c(c1)N[C@H](c1cccs1)[C@@H]1CCO[C@H]21 | inconclusive [inhibitor, partial curve, poor fit] | – |
| O=c1cc(NCc2ccccc2)nc2ccccn12 | inconclusive [inhibitor, single point] | – |
| COc1cccc(NC(=O)COc2ccccc2C(N)=O)c1 | inconclusive [inhibitor, single point] | – |
| CCn1nc(NS(=O)(=O)c2ccccc2)c2cc3ccccc3nc21 | inconclusive [inhibitor, single point] | – |
| CCCC(=O)N(C)c1nnc(-c2ccc(OC)cc2)s1 | inactive | – |
| CCC(C)NC(=O)CC(c1ccccc1)c1cc(C)ccc1O (stereo not given) | inactive | – |
| Cc1ccccc1-c1nc(CN2CCCC(C(=O)NCCCN3CCOCC3)C2)c(C)o1 (stereo not given) | inconclusive [inhibitor, single point] | – |
| O=C1CCN(CCc2ccccc2)CCN1[C@H](CSc1ccccc1)c1ccccc1 | active: 11.2 µM | – |
| CC(=O)N1N=C(c2cccs2)CC1c1cc2cc(C)ccc2nc1Cl (stereo not given) | inactive | – |
| Fc1ccc(NC(=S)Nc2ccc(Cl)cc2Cl)cc1 | active: 25.9 µM | – |
| CCOc1ccc2nc(N3CCCN(C(=O)Nc4ccccc4C)CC3)c(C#N)cc2c1 | inconclusive [inhibitor, single point] | – |
| Fc1ccc(CSc2ccc(-c3ccco3)nn2)cc1 | – | inconclusive: -38.4% [inhibitor] |
| OCC1(CCc2ccccc2)CCN(Cc2cc(F)ccc2-n2cccn2)CC1 | inconclusive [inhibitor, partial curve, poor fit] | – |

| Compound | Potency | activity change, negative = growth inhibition |
| --- | --- | --- |
| CC1=C(C(=O)N2CCCCCC2)CC(CC(=O)NCc2cccs2)C(=O)N1Cc1ccccc1 (stereo not given) | inconclusive [inhibitor, single point] | – |
| COc1cccc(CSc2nc3n(n2)C(c2ccccc2C)C(C(=O)Nc2ccccc2OC)=C(C)N3)c1 (stereo not given) | inconclusive [inhibitor, single point] | – |
| Cc1ccc(CNC(=O)c2cc3c(=O)n4ccccc4nc3n(CC3CCCO3)c2=N)cc1 (stereo not given) | inconclusive [inhibitor, partial curve] | – |
| Cc1ccc(Nc2nccc(N(C)c3ccc4c(C)n(C)nc4c3)n2)cc1S(N)(=O)=O | active: 13.3 µM | – |
| COc1ccc(S(=O)(=O)Nc2nc3ccccc3s2)cc1OC | inactive | – |
| COc1cccc(-c2cc(C(F)(F)F)nc(-n3cc(C)cn3)n2)c1 | active: 16.4 µM | – |
| Cc1ccc(C(=O)N(CCc2ccccc2)Cc2ccccc2)cc1S(=O)(=O)N1CCCCC1 | active: 18.4 µM | – |
| O=C(NC1CCCCC1)C1CCC(=O)N(Cc2cccc(C(F)(F)F)c2)C1 (stereo not given) | inactive | – |
| C/C(=N/NC(=O)CSc1ccccn1)c1ccc([N+](=O)[O-])cc1 | inactive | – |
| CCc1nc2c(OCC(N)=O)cccn2c1N(C)C(=O)C(C)C | inactive | – |
| CC(C)(C)C(=O)N1CCN(c2ccc(NC(=O)c3ccc4c(c3)OCCO4)cc2)CC1 | inconclusive [inhibitor, partial curve] | – |
| c1ccc(Nc2nc(-c3ccccc3)c(-c3ccccc3)s2)cc1 | inconclusive [inhibitor, single point] | – |
| Cc1ccc(-c2nc3c4cnn(-c5cc(Cl)ccc5Cl)c4ncn3n2)cc1 | inactive | – |
| COc1cc2c(cc1OC)CN(C(=O)C1CCN(S(=O)(=O)c3ccccc3F)CC1)CC2 | inactive | – |
| CN(C(=O)c1cccc(NC(=O)Cc2ccc(NC(=O)C3CCCN(C(=O)C4CCC4)C3)cc2)c1)C1CCC1 (stereo not given) | inactive | – |
| Cc1cccc(NC(=O)C2CCN(c3nccc(C)n3)CC2)c1 | inactive | – |
| COCCCn1c(=N)c(C(=O)NC2CCCC2)cc2c(=O)n3ccccc3nc21 | inactive | – |
| CC(C)N(C(=S)NCc1ccccc1)c1ccccc1 | inactive | – |
| CCc1cc(C(=O)Cc2cnn(-c3ccccc3)c2)c(O)cc1O | inactive | – |
| CCN(CC)CCNC(=O)c1cc(Br)c(N)cc1OC | inactive | – |
| O=C(c1ccc(Cl)cc1)N1CCN(c2ccc(F)cc2)CC1 | inconclusive [inhibitor, single point] | – |
| COc1cc2[nH]c(=S)nc(NCc3ccc(Cl)cc3)c2cc1OC | inconclusive [inhibitor, single point] | – |
| COc1ccccc1C=NN1CCCCCC1 | inconclusive [inhibitor, partial curve] | – |
| NC(=O)NCCCC(=O)O | inactive | – |
| O=Cc1cccc(Oc2ccc([N+](=O)[O-])cc2[N+](=O)[O-])c1 | active: 7.31 µM | – |

| Compound | Potency | activity change, negative = growth inhibition |
| --- | --- | --- |
| CCc1nc(N2CCOCC2)c(C#N)c2c1COC(C)(C)C2 | inconclusive [inhibitor, single point] | – |
| CCOC(=O)c1c(NC(=O)c2ccco2)sc(C(=O)N2CCCC2)c1C | inconclusive [inhibitor, single point] | – |
| Cc1noc(/C=C/c2cccs2)c1S(=O)(=O)N1CCC(C(=O)NCCCN2CCC(C)CC2)CC1 | inconclusive [inhibitor, single point] | – |
| CN1CCN(C(=S)NC(=O)c2ccc(Cl)cc2)CC1 | inconclusive [inhibitor, single point] | – |
| COc1cc(OC)cc(C(=O)Nc2nc(CC(=O)NCCc3ccccc3)cs2)c1 | inconclusive [inhibitor, single point] | – |
| OCCCNCc1cc2ccc(F)cc2nc1N1CCN(c2cccc(Cl)c2)CC1 | inactive | – |
| CCCN1CNc2c(c(=O)[nH]c(=S)n2CCc2cc(Cl)ccc2Cl)C1 | inconclusive [inhibitor, single point] | – |
| OCCn1nc(-c2ccccc2)cc1-c1ccccc1 | inactive | – |
| CN(c1ccccc1)S(=O)(=O)c1cccc(NC(=O)CC(C)(C)C)c1 | active: 14.6 µM | – |
| O=C(Nc1nnc(COc2ccc(Cl)cc2)s1)c1ccco1 | inconclusive [inhibitor, single point] | – |
| O=C1C[C@H]2C=CCc3cccc(c32)CN1Cc1ccc(Br)cc1 | active: 11.2 µM | – |
| COc1ccc2c(C)c(CC(=O)N3CCN(C(=O)C4COc5ccccc5O4)CC3)c(=O)oc2c1 (stereo not given) | inconclusive [inhibitor, single point] | – |
| CCCSc1cc(NCCOC(=O)CCC)c([N+](=O)[O-])c2nonc12 | active: 4.61 µM | – |
| CCn1cc(CN2CCCC(CO)(Cc3ccc(F)cc3)C2)c2ccccc21 (stereo not given) | inconclusive [inhibitor, single point] | – |
| OCc1nc2ccccc2n1CCCCOc1ccccc1 | inconclusive [inhibitor, single point] | – |
| CC1CC(C)CN(C(=O)C(C)N(C)CC(=O)Nc2ccc(Cl)cc2)C1 (stereo not given) | active: 14.6 µM | – |
| CCN(CC)C(=O)C1CC(=O)N(c2ccc(F)c(Cl)c2)C1 (stereo not given) | inactive | – |
| CC1=C(C(=O)O)N2C(=O)C(NC(=O)c3ccn(C)n3)C2SC1 (stereo not given) | inconclusive [inhibitor, single point] | – |
| COc1ccccc1C(=O)Nc1nc2ccccc2s1 | active: 10.3 µM | – |
| CC1CCC2(CC1)SCC(=O)N2c1ccc(F)cc1 (stereo not given) | inconclusive [inhibitor, partial curve] | – |
| O=C(c1cccs1)N1CCN(C/C=C/c2ccccc2)CC1 | inconclusive [inhibitor, single point] | – |
| O=C(NCc1ccccc1Cl)NC(=O)c1csc([N+](=O)[O-])c1 | inactive | – |
| O=C(C[n+]1cc(-c2ccccc2)n2c1CCCCC2)c1ccc(Br)cc1 | active: 23.1 µM | – |
| COCCn1c(-c2cccc(Br)c2)nc2c(c(=O)c3ccccc3n2C)c1=O | inconclusive [inhibitor, partial curve] | – |
| COc1ccccc1N1CCN(C(=O)COc2cc(C)ccc2C)CC1 | active: 16.4 µM | – |
